In all, about 110,000 compounds were measured (“z-score”: median about -0.1, highest 2% from about 2 on). The list shows a part of the results. Activity calls are given as the source filed them.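 How the source made its calls: active means z-score in the third read window above 3 or below -3; inactive means the rest.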

The test concerns the target Metabotropic glutamate receptor 8 (Rattus norvegicus) (UniProt P70579). Nature of the test: mGluR8 Gi/Go-coupled signaling modulation – cell-based, rat, thallium flux, HTS, primary screen (AID 488969). The note with it: HEK293 rat mGluR8, GIRK (G protein-gated inwardly rectifying potassium channel) thallium flux, FluoZin2; at 10 µM; stronger effect = higher value; submaximal glutamate (EC20) added with thallium.
Chain of UniProt P70579 (P70579 whole entry, looked up): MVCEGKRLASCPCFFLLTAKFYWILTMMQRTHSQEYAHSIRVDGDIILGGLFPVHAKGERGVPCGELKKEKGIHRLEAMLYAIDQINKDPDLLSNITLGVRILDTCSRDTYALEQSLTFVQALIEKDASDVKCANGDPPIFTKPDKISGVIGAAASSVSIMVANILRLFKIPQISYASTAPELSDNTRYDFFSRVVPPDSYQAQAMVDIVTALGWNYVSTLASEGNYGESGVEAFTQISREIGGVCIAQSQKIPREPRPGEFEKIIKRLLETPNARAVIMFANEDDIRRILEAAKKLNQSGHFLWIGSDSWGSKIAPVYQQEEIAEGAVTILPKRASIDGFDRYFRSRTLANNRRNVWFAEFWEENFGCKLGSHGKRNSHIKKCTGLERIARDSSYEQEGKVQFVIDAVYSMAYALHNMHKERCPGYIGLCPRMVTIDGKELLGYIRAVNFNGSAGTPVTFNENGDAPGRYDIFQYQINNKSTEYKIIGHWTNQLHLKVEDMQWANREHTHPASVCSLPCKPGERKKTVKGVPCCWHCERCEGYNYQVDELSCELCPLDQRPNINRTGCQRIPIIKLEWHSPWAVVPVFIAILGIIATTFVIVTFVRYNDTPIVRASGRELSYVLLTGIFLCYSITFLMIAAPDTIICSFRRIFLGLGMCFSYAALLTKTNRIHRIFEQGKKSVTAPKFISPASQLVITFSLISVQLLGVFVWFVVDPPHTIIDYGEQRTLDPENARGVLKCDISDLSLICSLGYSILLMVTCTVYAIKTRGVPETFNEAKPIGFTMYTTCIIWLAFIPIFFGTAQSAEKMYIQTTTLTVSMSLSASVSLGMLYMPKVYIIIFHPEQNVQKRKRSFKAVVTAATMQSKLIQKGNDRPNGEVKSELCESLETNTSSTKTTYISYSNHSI
Compound `O=C(NC(NC(=S)Nc1ccccc1O)C(Cl)(Cl)Cl)c1ccco1` (stereo not drawn) yielded a z-score of 0.576. As for `Cc1cc(C)c2nc(SCC(=O)NCCC3=CCCCC3)cc(C)c2c1`, the figure is active: 3.98. Consider `CCCC1CC(C)(c2csc(Nc3ccc(OCC)cc3)n2)OC1=O` (stereo not drawn), for which the z-score came to 0.0704.

With `CC(C)NC(=O)CSc1nnc(-c2ccncc2)n1-c1ccccc1`, the z-score turned out to be 0.211. In the case of `O=C(NCc1cccnc1)c1ccc2c(=O)n(CCCN3CCCC3=O)c(=S)[nH]c2c1`, the z-score is -0.116.

In the case of `Cc1ccccc1NC(=O)/C(C#N)=C/c1ccccc1C(F)(F)F`, the z-score is -0.118. For the compound `O=C(CC(=O)N/N=C/c1ccc(Cl)cc1Cl)NCc1ccccc1`, the z-score is -0.103. For `Cc1c(/C=N/NC(=O)c2ccc3c(c2)OCO3)cnn1C`, the z-score was -0.062. On to `c1ccc2c(c1)[nH]c1c(N3CCSCC3)ncnc12`, for which the z-score is -0.335. `Cc1ccc(N=Cc2sccc2C)cc1C`: the z-score came out at 0.192. Regarding `Cc1ccc(C(=O)n2c3ccccc3c3ccccc32)cc1`, the z-score worked out at 0.214.

Take `N#C/C(=C\C=C\c1ccccc1)c1nc(-c2ccc3c(c2)OCO3)cs1`: the z-score was -1.12. As for `COCCNC(=O)c1ccc2snnc2c1`, the figure is -0.116. `CCCNC(=S)Nc1ccc(CC(=O)OC)cc1` displayed a z-score of 0.529. Compound `CC1CCC(C(=O)NC(C(=O)NCCCN2CCOCC2)C(C)C)CC1` (stereo not drawn) came in with a z-score of 0.277.

As for `N#Cc1c(-c2ccco2)nc(NCC2CCCO2)[nH]c1=O` (stereo not drawn), the z-score is -0.706.

`COc1cc(/C=N/O)cc(Br)c1OCc1ccc(Cl)cc1` displayed a z-score of 0.305. As for `Cc1ccccc1Nc1nc(CSc2nnnn2-c2ccccc2)cs1`, the z-score is -0.404.

Turning to `COc1ccc(-c2cc(C(F)(F)F)nc(SCC(=O)NCc3ccco3)n2)cc1OC`, the z-score was -0.172. `Cc1c(-c2ccccc2)[n+](=O)c2c(n1[O-])CCCCC2`: the z-score was -0.0223. Consider `O=C(NCc1ccco1)c1ccccc1-c1ccc(C(F)(F)F)cc1`, for which the z-score was -0.173. Regarding `Clc1ccc(Oc2nc(N3CCOCC3)nc(N3CCOCC3)n2)cc1`, the z-score is -0.176. Turning to `CCCN1C(=O)/C(=c2\s/c(=C3\C=Cc4ccccc4N3CC)c(=O)n2-c2ccccc2)SC1=S`, the z-score is -0.345. In turn, `C=CCn1c(SCc2ccccc2)nc(O)cc1=O` came in with a z-score of 2.19.

Turning to `CN1CCN(S(=O)(=O)c2cccc(S(=O)(=O)c3cccc(S(=O)(=O)N4CCN(C)CC4)c3)c2)CC1`, the z-score was active: 14.

As for `COCc1cc(C)nc(OCC(=O)N/N=C\c2cc(C)n(-c3cccc(C(F)(F)F)c3)c2C)c1C#N`, the z-score is -0.0391.

`CN1CCN(CCCNC(=O)c2cc3c(-c4ccc(Cl)cc4)nn(C)c3s2)CC1`: the z-score was -0.206. The value for `CCc1nc2c(sc3nc4c(cc32)COC(C)(C)C4)c(=O)n1Cc1ccccc1` was -0.115; that for `O=C1CCCc2ccccc2N1Cc1ccccc1Cl` was -0.206; that for `Nc1cc(C(F)(F)F)ccc1C(=O)O` was -0.284. As for `Cc1ccc(CNC(=O)COC(=O)c2ccc(Cl)c(N)c2)cc1`, the z-score is -0.283. In the case of `COc1ccccc1N1CCN(Cc2ccco2)CC1`, the z-score is -0.814. As for `O=C(Cn1nc(-c2ccc(Cl)cc2)ccc1=O)NCC1CCCO1` (stereo not drawn), the figure is -0.244; as for `CCOC(=O)CCSc1nc(C(C)(C)C)cc(C(F)(F)F)c1C#N`, 0.0143.

`c1ccc(N=C(c2cccs2)N2CCOCC2)cc1` returned a z-score of 0.533.

`O=C(COc1ccc2ccccc2c1)NNC(=O)Cc1ccccc1`: the z-score was -0.148. `COc1ccc(OC)c(NS(=O)(=O)c2ccc(Cl)s2)c1` had a z-score of 0.483. As for `CCc1ccc(CCC(=O)Nc2ccccc2C(=O)O)o1`, the z-score was -0.597.

Regarding `Cc1ccc(S(=O)(=O)NCC(=O)OC(C)C(=O)Nc2ncc(Cl)cc2Cl)cc1` (stereo not drawn), the z-score was -0.407. On to `COCC(=O)/C=C1\Sc2ccccc2N1C`, for which the z-score stood at 1.82. As to `CCOc1ccccc1NC(=O)C1CCCN(C(=O)Nc2ccccc2)C1` (stereo not drawn), the z-score was -0.284. As to `CC(NC(=O)c1cccc(Cn2cc([N+](=O)[O-])cn2)c1)c1ccc(C(C)(C)C)cc1` (stereo not drawn), the z-score was determined as 0.495. In the case of `O=[N+]([O-])c1cccc2ccc(/C=C/c3ccc(C(F)(F)F)cc3)nc12`, the z-score is -0.154. As to `S=c1[nH]nc(COc2ccccc2)n1/N=C/C(Cl)=C/c1ccccc1`, the z-score was -0.26. With `Cc1nc2ncnn2c(N2CCN(c3cccc(C(F)(F)F)c3)CC2)c1C`, the z-score was 0.118. As for `Cn1ccnc1SCC(=O)Nc1ccc2nc(SCC(=O)NC3CC3)sc2c1`, the z-score is -0.00819. `CCOC(=O)Cc1c(C)nc2c(-c3ccc(OC)cc3)c(C)nn2c1C`: the z-score is -0.695. Take `O=c1oc2ccccc2c(Nc2ccc3ncccc3c2)c1[N+](=O)[O-]`: the z-score was -0.178.

With `O=C(Nc1cccc(F)c1)c1sc(Cl)nc1-c1ccccc1`, the z-score was -0.763. `CCCCN(C)c1nc(-c2ccco2)c2c(c1C#N)CC(C)(C)OC2` yielded a z-score of 0.00143. `CN(C)CCn1c(NC(=O)c2ccc(Cl)cc2)nc2ccccc21` yielded a z-score of 0.381.

Consider `O=C(Nc1ccccc1)NC1(C(=O)N2CCN(C(=O)c3ccco3)CC2)CCCCC1`, for which the z-score is -0.122.

As for `CC(=O)c1cccc(NC(=O)C(OC(=O)c2cccc(S(=O)(=O)N(C)c3ccccc3)c2)c2ccccc2)c1` (stereo not drawn), the z-score turned out to be 0.518. Regarding `COc1cc2cc3c(N)c(C(=O)NCc4ccco4)sc3nc2cc1OC`, the z-score is -0.4. Consider `O=C(CSCc1ccccc1Br)NC1CC1`, for which the z-score was -0.111. Regarding `CCCCN(CCCC)CCn1cnc2c([nH]c3ccc(OC)cc32)c1=O`, the z-score was 0.258.

On to `Cc1ccc(C(=O)NC(=S)NCC(=O)c2ccccc2)cc1`, for which the z-score was -0.021. As for `Cc1cccc(C)c1NC(=O)N1CCN(c2nc3ccccc3s2)CC1`, the figure is 0.0476; as for `CN(C)S(=O)(=O)c1ccc(S(=O)(=O)N2CCCC2)cc1`, -0.0148; as for `O=C(NCc1cccnc1)c1cccc(C(F)(F)F)c1`, -0.793. For the compound `O=c1[nH]c(=O)n(Cc2ccco2)c2c1C(C(F)(F)F)(C(F)(F)F)N=C(C1CCCCC1)N2`, the z-score is 0.667. The value for `Cc1cccc(N2C(=O)CC(Sc3nc(C)c4c(n3)CCCC4)C2=O)c1` (stereo not drawn) was 1.35. The value for `CCOC(=O)c1cc2c(nc1NC(=S)Nc1ccccc1)CC(C)(CC)OC2` (stereo not drawn) was 0.172; that for `CC(C)c1ccc(CC(C)C2C3=C(CCCC3=O)OC3=C2C(=O)CCC3)cc1` (stereo not drawn) was -0.387. In the case of `COc1ccc(OC)c(NC(=O)C2CCN(c3nc(C)cc(C)n3)CC2)c1`, the z-score came out at 0.896. Take `Cc1cc(/C=C(\C#N)C(=O)NC2CCCCCC2)c(C)[nH]1`: the z-score was -0.0314. As for `CCN(CC)S(=O)(=O)c1ccc(NC(=O)c2cc(-c3cccs3)nc3ccccc23)cc1`, the figure is -0.245; as for `Cc1cc(N2CCCCC2)n2ncc(-c3ccc(Cl)cc3)c2n1`, -0.365; as for `CCCCCNC1=CC(=O)CC(c2ccccc2)C1` (stereo not drawn), -0.123. In the case of `Fc1ccc(Cn2ccc(-c3cnc(-c4ccccc4)s3)n2)cc1`, the z-score was -0.508. As for `Nc1c(-c2ccc(Cl)cc2)cnn1C1CCS(=O)(=O)C1` (stereo not drawn), the figure is -0.761. For `CCOc1ccc(CN(C(=O)c2cc3ccccc3oc2=O)C2CC2)cc1`, the z-score was -0.506. Consider `CCOc1cccc2sc(=NC(=O)c3ccc(S(=O)(=O)N4CCOCC4)cc3)n(C)c12`, for which the z-score turned out to be 0.0157.

Regarding `CCOC(=O)N1CCN(CC(O)c2ccc3c(c2)CCN3)CC1` (stereo not drawn), the z-score is -0.451. For the compound `COC(=O)c1[nH]c2cc(OC)c(OC)cc2c1NC(=O)c1cccc(OC)c1`, the z-score came to 0.269. In the case of `Cc1ccc(S(=O)(=O)/N=C2/NC(=O)/C(=C/c3ccncc3)S2)cc1`, the z-score was -0.504. Compound `Cc1ccc2c(c1)C(c1ccncc1)=NNC(c1ccc(C(C)C)cc1)=N2` came in with a z-score of 0.622. In turn, `CCNC(=O)CC1C(=O)N(c2ccc(C)cc2)C(=O)N1CCc1ccc(OC)c(OC)c1` (stereo not drawn) yielded a z-score of 0.0518. As to `Cc1cc(N2C(=O)C(=O)/C(=C(/O)c3ccc(Cl)cc3)C2c2cccc(Br)c2)no1` (stereo not drawn), the z-score is -0.652. Take `O=C(c1noc2c1CCCC2)N1CCOCC1`: the z-score is -0.189. The value for `Cc1cc(C)c2c(n1)sc1c(N3CCN(CCO)CC3)ncnc12` was -0.0957. The value for `CN1C(=O)C(c2nnc(Nc3cccc4ccccc34)s2)C2CC1(C)Oc1ccccc12` (stereo not drawn) was -0.206; that for `Cn1c(=NC(=O)c2ccccc2[N+](=O)[O-])sc2cc(S(C)(=O)=O)ccc21` was -0.0581. Turning to `Cc1ccc(OCC(O)Cn2c3ccccc3c3ccccc32)cc1` (stereo not drawn), the z-score is -0.222. In the case of `Cc1cc(N)n(-c2ncnc3scc(-c4ccccc4)c23)n1`, the z-score was 0.373. Turning to `CC(C)(C)c1ccc(S(=O)(=O)NCC(=O)Nc2ccc(-c3nc4ccccc4s3)cc2)cc1`, the z-score is -0.0736.

In the case of `Fc1ccc2nc(-c3ccccc3)nc(SCc3nnc(-c4ccccc4)o3)c2c1`, the z-score was active: 14.3. `COCc1cc(C)nc2sc(C(=O)Nc3nccs3)c(N)c12`: the z-score was 0.558. `NS(=O)(=O)c1ccc(NCc2ccccc2OCc2ccc(F)cc2)cc1`: the z-score was -0.691. Take `CCOc1cc(C(=O)Nc2cccc3ncccc23)cc(OCC)c1OCC`: the z-score was -0.0792. On to `Cc1cc(OC(=O)N2CCOCC2)cc(C)c1Cl`, for which the z-score stood at 0.692. As for `O=C(NC1CCCCC1)c1cccnc1C(=O)O`, the figure is 0.678. As for `NC(=O)C1CCN(C(=O)CN2CCCc3ccccc32)CC1`, the figure is -0.124; as for `COc1cc([N+](=O)[O-])ccc1NC(=O)CCCOc1cccc(C)c1C`, -0.06; as for `COc1ccc(OC)c(Nc2nc(-c3sc(NC(=O)C(C)(C)C)nc3C)cs2)c1`, -0.237. As for `Cc1cc(C#N)c(C)n1-c1cc(S(=O)(=O)N2CCOCC2)ccc1N1CCCC1`, the figure is 0.38; as for `Cc1cc(C)n(C(=O)CCNC(=O)c2ccccc2Br)n1`, -0.384; as for `COCCCn1c(SCC(=O)NC(C)(C)C)nnc1-c1ccccc1`, 0.863. Take `Clc1ccc(C(c2nnnn2C2CCCC2)N2CCN(c3nc4ccccc4s3)CC2)cc1` (stereo not drawn): the z-score is -0.252. For the compound `Nc1scc2c(C(=O)N/N=C/c3ccc(Cl)cc3)nn(-c3ccccc3)c(=O)c12`, the z-score was -0.086. Turning to `CCC(c1nnc(SCc2nc3ccccc3s2)n1Cc1ccccc1)N(C)C` (stereo not drawn), the z-score is -1.18. Compound `COc1cc(S(=O)(=O)n2c(C)nc3ccccc32)ccc1F` registered a z-score of 0.0756. With `O=C(Nc1ccccc1Cl)c1cccc(COc2cc(Cl)ccc2Cl)c1`, the z-score is -0.0327.

In turn, `O=C(O)c1cccnc1Sc1ccccc1` came in with a z-score of 0.0247. As for `CN(C)c1ccc(/C=N/NC(=O)CN2CCN(c3ccc(F)cc3)CC2)cc1`, the z-score is -0.219. On to `C/C(Cn1nc([N+](=O)[O-])cc1C)=N\NC(=O)c1ccc(C(C)(C)C)cc1`, for which the z-score is -0.0524. For the compound `COc1nc(OC)nc(N2CCC(NC(=O)C(Cc3ccc(C(C)C)cc3)NC(C)=O)CC2)n1` (stereo not drawn), the z-score was -0.492. On to `COC(=O)c1ccc(C2/C(=C(\O)c3ccc4c(c3)OCCO4)C(=O)C(=O)N2CCCN(C)C)cc1` (stereo not drawn), for which the z-score is -0.191.

For the origin of these results see PubChem BioAssay AID488969 (Vanderbilt High Throughput Screening Facility, 2010).
